Measurements published in PubChem BioAssay AID1460 (National Center for Advancing Translational Sciences (NCATS), 2008).
Screen size: about 270,000 compounds; about 5,800 (2.1%) were called active. Inconclusive results, whose numbers are uncertain, are shown with a selection of clear calls. The call rests on the fitted dose curve; in most records, active means well fitted inhibition curve with a large enough effect; inconclusive means small, poorly fitted or top-dose-only effect; inactive means flat fitted curve, though single readings scatter. A potency beside an inconclusive call is a rough fit, not a confirmed value.

target: Microtubule-associated protein tau (Homo sapiens) (UniProt P10636); assay: qHTS for Inhibitors of Tau Fibril Formation, Thioflavin T Binding; settings: recombinant tau K18 P301L, heparin-induced fibrillization, ThT fluorescence; series mostly up to 57.4 µM; further: nearly all actives have a fitted effect of over 55% in size
Chain of UniProt P10636 (P10636 whole entry, looked up): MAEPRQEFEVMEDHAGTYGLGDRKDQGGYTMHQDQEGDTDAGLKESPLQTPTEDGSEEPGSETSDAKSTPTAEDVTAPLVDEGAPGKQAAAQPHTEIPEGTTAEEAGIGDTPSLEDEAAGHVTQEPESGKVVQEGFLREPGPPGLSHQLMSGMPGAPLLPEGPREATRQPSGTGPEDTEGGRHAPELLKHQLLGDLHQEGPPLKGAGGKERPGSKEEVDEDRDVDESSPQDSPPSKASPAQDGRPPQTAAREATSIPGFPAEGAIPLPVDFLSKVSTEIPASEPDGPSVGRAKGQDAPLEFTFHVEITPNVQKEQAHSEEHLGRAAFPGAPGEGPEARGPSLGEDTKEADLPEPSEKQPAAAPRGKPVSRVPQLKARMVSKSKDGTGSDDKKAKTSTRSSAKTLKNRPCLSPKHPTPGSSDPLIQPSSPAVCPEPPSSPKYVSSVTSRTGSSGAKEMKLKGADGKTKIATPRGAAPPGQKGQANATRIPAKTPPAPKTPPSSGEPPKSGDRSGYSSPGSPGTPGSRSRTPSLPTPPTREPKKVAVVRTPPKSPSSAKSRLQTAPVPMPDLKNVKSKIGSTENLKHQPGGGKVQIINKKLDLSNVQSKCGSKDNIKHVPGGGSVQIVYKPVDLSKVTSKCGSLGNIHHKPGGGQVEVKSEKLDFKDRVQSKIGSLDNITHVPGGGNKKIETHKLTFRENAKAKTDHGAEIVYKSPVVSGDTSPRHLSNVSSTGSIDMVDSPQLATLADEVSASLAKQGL
Outline: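 Using a mix of unlabeled (15 uM) and Alexa 594-labeled (0.24 uM) tau K18 P301L, heparin-triggered fibrillization over 6 hr at 37 C was scored by ThT fluorescence.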
On the % scale 0 is the no-effect control and ±100 the full control effect; potency means the concentration at half of the fitted maximal effect; tags describe the fitted curve by direction and shape.

SMILES | Potency | activity, negative = inhibition
Cc1cccc2cc3c(N)c(C(=O)Nc4ccc(N5CCOCC5)cc4)sc3nc12 | active: 2.82 µM | –
CCOC(=O)N1CCN(Cc2nc3cc(NC(C)=O)ccc3n2C(C)C)CC1 | inactive | –
CC1CCC2C(=O)N3C(CCC(C)[C@H]3c3ccccc3Br)C(=O)N2C1c1ccccc1Br (stereo not given in full) | – | inactive: 0.217% [at 11.5 µM]
Cc1ccc(NC2CC(=O)N(c3ccc(N4CCCCC4)cc3)C2=O)cc1 (stereo not given) | inconclusive: 7.94 µM [inhibitor, partial curve] | –
COc1cc(OC)cc(C2=NC3(CCC(C)CC3)NC2=S)c1 (stereo not given) | inconclusive: 15.8 µM [inhibitor, partial curve] | –
CCN(CC)C(=S)SCC(=O)Nc1nc(-c2ccccc2)c(-c2ccccc2)o1 | inactive | –
COc1ccccc1N1CCN(C(=O)C2CCN(S(=O)(=O)c3c(C)noc3/C=C/c3ccc(C)cc3)CC2)CC1 | inactive | –
CCCCn1c(SCC(=O)Nc2cccc(OC)c2)nc2c(sc3ccccc32)c1=O | inactive | –
CCc1nnc(NC(=O)CSc2nnc(CNc3ccc(Cl)cc3)o2)s1 | inconclusive: 1.41 µM [inhibitor, full curve] | –
CC1CCc2noc(NC(=O)c3ccccc3[N+](=O)[O-])c2C1 (stereo not given) | inconclusive: 28.2 µM [inhibitor, partial curve] | –
CCCN1C=CC(=C/C=C(\C#N)C(=O)OCC)C=C1 | inconclusive: 28.2 µM [inhibitor, partial curve] | –
COc1ccccc1Nc1nc(-c2cccc([N+](=O)[O-])c2)cs1 | inconclusive: 11.2 µM [inhibitor, partial curve] | –
COc1cc(OC)nc(-n2ncc(Br)c(Br)c2=O)n1 | active: 10 µM | –
Clc1ccc2c(c1)c1cc(Cl)ccc1n2CN1CCOCC1 | inconclusive: 31.6 µM [activator, partial curve] | –
O=C(Nc1ccccc1F)c1nc(SCc2ccc(F)cc2)ncc1Cl | inactive | –
Clc1nc2ccccc2cc1-c1nnn(-c2ccccc2)n1 | inconclusive: 22.4 µM [inhibitor, single point] | –
O=C(N=C1c2ccccc2CN1c1ccc(F)cc1)c1ccc(Cl)nc1 | inconclusive: 22.4 µM [inhibitor, single point] | –
O=C(CCC1CCCC1)N1CCc2c([nH]c3ccccc23)C1c1ccc(Cl)cc1 (stereo not given) | inconclusive: 5.01 µM [inhibitor, single point] | –
O=C1OC(=O)C2C3CCC(O3)C12 (stereo not given) | inactive | –
CCOC(=O)/C(N=Nc1ccc2c(c1)OCO2)=C(\C)O | inconclusive: 17.8 µM [inhibitor, partial curve] | –
